From the supplement of paper PMC7580552 come the findings set out here.

Counter-ions that a name gives are not always drawn. Some of the results follow. Many values rest on one well or one pass, so single values are uncertain.
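Note: stationary (unshaken) cultures in 96-well plates, started at OD600 0.05 from mid-exponential cells, with compounds supplied from DMSO stocks.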

The subject of the experiment is Escherichia coli W3110. Description: planktonic growth (OD600) relative to untreated control; higher = more growth. To be noted: 10 µM; 20-24 h; 30 °C; TB.
In turn, `CC1(C)O[C@@H]2C[C@H]3[C@@H]4CCC5=CC(=O)CC[C@]5(C)[C@@]4(F)[C@@H](O)C[C@]3(C)[C@]2(C(=O)CCl)O1` [Halcinonide] displayed a planktonic growth of 95%. Consider `CC(=O)O[C@H]1C[C@@H]2CC[C@@H]3[C@H](CC[C@@]4(C)[C@H]3C[C@H]([N+]3(C)CCCCC3)[C@@H]4OC(C)=O)[C@@]2(C)C[C@@H]1N1CCCCC1` [Vecuronium bromide], for which the planktonic growth came out at 92%. Consider `C[C@@H](O)[C@H]1C(=O)N2C(C(=O)O)=C(S[C@@H]3CN[C@H](C(=O)N(C)C)C3)[C@H](C)[C@H]12` [Meropenem], for which the planktonic growth is 20%. In the case of `C[C@@H]1C[C@H]2[C@@H]3C[C@H](F)C4=CC(=O)C=C[C@]4(C)[C@@]3(Cl)[C@@H](O)C[C@]2(C)[C@H]1C(=O)COC(=O)C(C)(C)C` [Clocortolone pivalate] it was 92%. In the case of `CNCCCC12CCC(c3ccccc31)c1ccccc12` [Maprotiline hydrochloride] it was 96%; in that of `OC(c1cc(C(F)(F)F)nc2c(C(F)(F)F)cccc12)C1CCCCN1` (configuration not stated) [Mefloquine hydrochloride], 107%; in that of `O=C(NCCN1CCOCC1)c1ccc(Cl)cc1` [Moclobemide], 96%. With `CN(C)CCCSC(=N)N` [Dimaprit dihydrochloride] the figure was 92%; with `C[C@H](Cc1cc2c(c(C(N)=O)c1)N(CCCO)CC2)NCCOc1ccccc1OCC(F)(F)F` [Silodosin], 106%.

For `Cc1onc(-c2c(F)cccc2Cl)c1C(=O)N[C@@H]1C(=O)N2[C@@H]1SC(C)(C)[C@@H]2C(=O)O` [Flucloxacillin sodium], the planktonic growth worked out at 89%. With `CCN1CCCC(OC(=O)C(c2ccccc2)c2ccccc2)C1` (configuration not stated) [Piperidolate hydrochloride] the figure was 92%. For the compound `NS(=O)(=O)c1cc(Cl)c(Cl)c(S(N)(=O)=O)c1` [Dichlorphenamide], the planktonic growth came out at 111%. `CCCCCNC(=N)N/N=C/c1c[nH]c2ccc(OC)cc12` [Tegaserod maleate] came in with a planktonic growth of 83%.

In turn, `CC(C)NC[C@H](O)COc1cccc2ccccc12` [(S)-propranolol hydrochloride] returned a planktonic growth of 102%. The compound `OCCN1CCN(CCCN2c3ccccc3C=Cc3ccccc32)CC1` [Opipramol dihydrochloride] came in with a planktonic growth of 105%.

In the case of `CC(=O)CCCCn1c(=O)c2c(ncn2C)n(C)c1=O` [Pentoxifylline], the planktonic growth came to 92%. In the case of `CN1C(=O)OC(C)(C)C1=O` [Trimethadione] it was 93%; in that of `CN(C/C=C/c1ccccc1)Cc1cccc2ccccc12` [Naftifine hydrochloride], 99%; in that of `O=c1n(CCCN2CCN(c3cccc(Cl)c3)CC2)nc2ccccn12` [Trazodone hydrochloride], 93%. On to `CC1(C)S[C@@H]2[C@H](NC(=O)[C@H](N)c3ccccc3)C(=O)N2[C@H]1C(=O)O` [Ampicillin trihydrate], for which the planktonic growth worked out at 18%.

The compound `C/C=C(/C(=C/C)c1ccc(O)cc1)c1ccc(O)cc1` [Dienestrol] came in with a planktonic growth of 94%. The compound `Cc1ncc([N+](=O)[O-])n1CC(C)O` (configuration not stated) [Secnidazole] gave a planktonic growth of 113%. Take `O=C(O)c1ccccc1OP(=O)(O)O` [Fosfosal]: the planktonic growth was 97%. The compound `Nc1cc(N2CCCCC2)nc(N)[n+]1[O-]` [Minoxidil] yielded a planktonic growth of 96%. With `COc1ccc2cc([C@H](C)C(=O)O)ccc2c1` [(S)-Naproxen] the figure was 102%; with `COc1cccc2c1C(=O)c1c(O)c3c(c(O)c1C2=O)C[C@@](O)(C(=O)CO)C[C@@H]3O[C@H]1C[C@H](N)[C@@H](O)[C@H](C)O1` [Epirubicin hydrochloride], 121%; with `CCCN(CCC)CCc1cccc2c1CC(=O)N2` [Ropinirole hydrochloride], 91%. With `CC(=O)O[C@H]1C(=O)[C@@]2(C)[C@H]([C@H](OC(=O)c3ccccc3)[C@]3(O)C[C@H](OC(=O)[C@H](O)[C@@H](NC(=O)c4ccccc4)c4ccccc4)C(C)=C1C3(C)C)[C@]1(OC(C)=O)CO[C@@H]1C[C@@H]2O` [Paclitaxel] the figure was 106%. In the case of `NC(=O)c1cnccn1` [Pyrazinamide] it was 91%; in that of `O=C(CCNNC(=O)c1ccncc1)NCc1ccccc1` [Nialamide], 86%. `N/C(=N\C(=O)c1nc(Cl)c(N)nc1N)NCc1ccccc1` [Benzamil hydrochloride] returned a planktonic growth of 95%. In the case of `CSc1nc2cc(Cl)c(Oc3cccc(Cl)c3Cl)cc2[nH]1` [Triclabendazole], the planktonic growth was determined as 59%.

`Cc1nc2ccccn2c(=O)c1CCN1CCC(C(=O)c2ccc(F)cc2)CC1` [Pirenperone]: the planktonic growth came to 87%. Regarding `Cc1cc2c(s1)Nc1ccccc1N=C2N1CCN(C)CC1` [Olanzapine], the planktonic growth is 110%. In the case of `CC=CC1=C(C(=O)O)N2C(=O)[C@@H](NC(=O)[C@H](N)c3ccc(O)cc3)[C@H]2SC1` [Cefprozil] it was 104%. With `Cc1c(O)c(=O)n(-c2ccccc2)n1C` [Antipyrine, 4-hydroxy] the figure was 97%; with `CC(C)OC(=O)C(C)(C)Oc1ccc(C(=O)c2ccc(Cl)cc2)cc1` [Fenofibrate], 107%; with `CN1CCCN=C1/C=C/c1cccc(O)c1` [Oxantel pamoate], 102%.

The compound `CC(N)CCCC(C)(C)O` (configuration not stated) [Heptaminol hydrochloride] displayed a planktonic growth of 86%. In the case of `C[C@@H](O[C@H]1OCCN(Cc2n[nH]c(=O)[nH]2)[C@H]1c1ccc(F)cc1)c1cc(C(F)(F)F)cc(C(F)(F)F)c1` [Aprepitant] it was 82%. In the case of `CCc1cccc(CC)c1NC(=O)CN(CC(=O)O)CC(=O)O` [Etifenin] it was 93%; in that of `CN/C(=N\CCSCc1nc[nH]c1C)NC#N` [Cimetidine], 92%; in that of `C/C(=C\C(=O)OCCCCCCCCC(=O)O)C[C@@H]1OC[C@H](C[C@@H]2O[C@H]2[C@@H](C)[C@H](C)O)[C@@H](O)[C@H]1O` [Mupirocin], 56%.

Turning to `O=C(O)c1cc(/N=N/c2ccc(S(=O)(=O)Nc3ccccn3)cc2)ccc1O` [Sulfasalazine], the planktonic growth was 94%. As to `CN1CCCN(C(c2ccccc2)c2ccc(Cl)cc2)CC1` (configuration not stated) [Homochlorcyclizine dihydrochloride], the planktonic growth is 102%. With `C[C@@H]1C[C@H]2[C@@H]3CCC4=CC(=O)C=C[C@]4(C)[C@@]3(Cl)[C@@H](O)C[C@]2(C)[C@@]1(OC(=O)c1ccco1)C(=O)CCl` [Mometasone furoate] the figure was 98%.

`CCOc1ccc2nc(S(N)(=O)=O)sc2c1` [Ethoxzolamide] gave a planktonic growth of 89%. The compound `Nc1ncnc2c1ncn2C1OC(COP(=O)(O)O)C(O)C1O` (configuration not stated) [Adenosine 5'-monophosphate monohydrate] displayed a planktonic growth of 100%. With `CCCCc1ccc2[nH]c(NC(=O)OC)nc2c1` [Parbendazole] the figure was 98%; with `CN1CCN(C(c2ccccc2)c2ccccc2)CC1` [Cyclizine hydrochloride], 95%.

On to `CN(c1nccc(=O)[nH]1)C1CCN(c2nc3ccccc3n2Cc2ccc(F)cc2)CC1` [Mizolastine], for which the planktonic growth was 101%. Compound `O=C(O)c1ccccc1C(=O)Nc1ccc(S(=O)(=O)Nc2nccs2)cc1` [Phthalylsulfathiazole] yielded a planktonic growth of 90%. With `OCCN(CCO)c1nc(N2CCCCC2)c2nc(N(CCO)CCO)nc(N3CCCCC3)c2n1` [Dipyridamole] the figure was 99%; with `Nc1c2ccccc2nc2ccccc12` [Aminacrine], 130%; with `CN1CCC(=C2c3ccccc3Sc3ccccc32)CC1` [Pimethixene maleate], 92%. With `N[C@@H](Cc1cc(I)c(Oc2ccc(O)c(I)c2)c(I)c1)C(=O)O` [Liothyronine] the figure was 89%; with `COC(=O)C1=C(C#N)NC(C)=C(C(=O)OC(C)C)C1c1cccc([N+](=O)[O-])c1` (configuration not stated) [Nilvadipine], 106%. In the case of `CC1CC(OC(=O)c2ccccc2O)CC(C)(C)C1` (configuration not stated) [Homosalate] it was 113%.

Consider `NC[C@@H]1O[C@@H](O[C@H]2[C@H](O)[C@@H](O[C@H]3O[C@H](CO)[C@@H](O)[C@H](N)[C@H]3O)[C@H](N)C[C@@H]2N)[C@@H](O)[C@H](O)[C@H]1O` [Kanamycin A sulfate], for which the planktonic growth was 93%. In the case of `O=C(CCCN1CCN(c2ccccn2)CC1)c1ccc(F)cc1` [Azaperone] it was 100%; in that of `C[C@H](CCC(=O)O)[C@H]1CC[C@H]2[C@@H]3[C@@H](O)C[C@@H]4C[C@H](O)CC[C@]4(C)[C@H]3CC[C@]12C` [Urosiol], 99%; in that of `C#C[C@]1(O)CC[C@H]2[C@@H]3CCC4=CCCC[C@@H]4[C@H]3CC[C@@]21C` [Lynestrenol], 93%. For the compound `CC[C@@H]1C(=O)OC[C@@H]1Cc1cncn1C` [Pilocarpine nitrate], the planktonic growth was determined as 108%. Regarding `Cc1c(NC(=O)c2cccnc2)c(=O)n(-c2ccccc2)n1C` [Nifenazone], the planktonic growth amounted to 92%. With `CS(=O)(=O)OCCCCOS(C)(=O)=O` [Busulfan] the figure was 109%; with `NS(=O)(=O)c1cc2c(cc1C(F)(F)F)NCNS2(=O)=O` [Hydroflumethiazide], 88%. With `CC(=O)NS(=O)(=O)c1ccc(N)cc1` [Sulfacetamide sodic hydrate] the figure was 68%; with `Cc1cn([C@H]2C=C[C@@H](CO)O2)c(=O)[nH]c1=O` [Stavudine], 96%; with `C=CC1=C(C(=O)O)N2C(=O)[C@@H](NC(=O)/C(=N\O)c3csc(N)n3)[C@H]2SC1` [Cefdinir], 16%. In the case of `COc1cccc2c1C(=O)c1c(O)c3c(c(O)c1C2=O)C[C@@](O)(C(C)=O)C[C@@H]3O[C@H]1C[C@H](N)[C@H](O)[C@H](C)O1` [Daunorubicin hydrochloride] it was 87%; in that of `CC(=O)CC(c1ccccc1)c1c(O)c2ccccc2oc1=O` (configuration not stated) [Warfarin], 98%; in that of `CO[C@@H]1[C@@H](O[C@@H]2O[C@H](C)[C@@H](O[C@H]3C[C@@](C)(O)[C@@H](OC(=O)CC(C)C)[C@H](C)O3)[C@H](N(C)C)[C@H]2O)[C@@H](CC=O)C[C@@H](C)[C@@H](O)/C=C/C=C/C[C@@H](C)OC(=O)C[C@H]1OC(C)=O` [Josamycin], 92%.
